This is one part of the list. The list includes weakly bound sequences.

The results in this text go back to publication PMC4242493.

The assay concerns the target MaxL homodimer (UniProt P61244). Description: universal protein-binding microarray (PBM). Conditions: PBS-based mixture, 10 nM His-tagged protein dimer, 2% milk, 200 ng/uL BSA, 50 ng/uL salmon testes DNA, 0.02% TX-100; detection with Alexa 488 anti-His …; high values mean tight binding; most listed sequences are background and not binding sites; double strand, one strand shown.
Sequence of UniProt P61244 (P61244 whole entry): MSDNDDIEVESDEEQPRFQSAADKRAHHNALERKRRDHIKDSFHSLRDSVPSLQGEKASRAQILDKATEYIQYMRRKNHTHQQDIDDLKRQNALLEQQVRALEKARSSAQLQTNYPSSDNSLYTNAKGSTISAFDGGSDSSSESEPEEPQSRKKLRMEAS
For ATGAATTA, the binding signal (normalized occupancy) was 0.0806.
GCAAACGC: the binding signal (normalized occupancy) is 0.0735.
As to CCTCTAAC, the binding signal (normalized occupancy) was 0.0759.
The same measure for CGAAATAA: 0.0704; for ATATTGTA: 0.081; for CCGACAAG: 0.0708.
Consider AGCTCTTC, for which the binding signal (normalized occupancy) turned out to be 0.0714.
As to AAACACCG, the binding signal (normalized occupancy) was 0.0706.
To CGTCAGAC belongs 0.0733.
The same measure for ACGCTTCT: 0.0775.
With GCACCCCA, the binding signal (normalized occupancy) turned out to be 0.078.
To GGCTCCTA belongs 0.0694; to GTGCATTA, 0.0779; to GTGTCCAA, 0.076.
Regarding AAGGGGAA, the binding signal (normalized occupancy) was 0.0744.
Turning to TGGCCACA, the binding signal (normalized occupancy) stood at 0.0875.
Consider CATATTAC, for which the binding signal (normalized occupancy) came to 0.0801.
As for CTAGCGAA, the binding signal (normalized occupancy) was determined as 0.071.
The same measure for AAGGGCCG: 0.0664; for CCAAACAC: 0.0858; for CGAGCCTA: 0.0698.
AGCGGAGA: the binding signal (normalized occupancy) came to 0.0714.
As to CTTGAGCC, the binding signal (normalized occupancy) was determined as 0.0693.
The same measure for AATCGTCT: 0.0757; for GGGACATA: 0.0821.
On to AACGGGTG, for which the binding signal (normalized occupancy) came out at 0.078.
AGGAGGGC: the binding signal (normalized occupancy) was found to be 0.0759.
Regarding CTAGTAAG, the binding signal (normalized occupancy) was 0.0728.
The same measure for ATCCGCAA: 0.075.
To ATGTAAGC belongs 0.0797.
Turning to AACCATTC, the binding signal (normalized occupancy) was determined as 0.0758.
To GAGTATTA belongs 0.0788.
Regarding CCGATTCG, the binding signal (normalized occupancy) was found to be 0.0719.
To ACTTAGGG belongs 0.073; to GTTGAAAA, 0.0729.
The same measure for CCTCCTGC: 0.0769; for CTCAATAA: 0.073; for CAACCACC: 0.0741.
As for GAAGACTC, the binding signal (normalized occupancy) is 0.0694.
AGACATTC: the binding signal (normalized occupancy) was 0.0798.
CGGCTGGA: the binding signal (normalized occupancy) was 0.0689.
Consider CGGCTCCA, for which the binding signal (normalized occupancy) is 0.0694.
GCCACGAC: the binding signal (normalized occupancy) came to 0.077.
Consider ACACGATA, for which the binding signal (normalized occupancy) worked out at 0.0824.
The same measure for AGTTCGAT: 0.0764; for GAATGCGA: 0.077.
The same measure for AAGATTGG: 0.0762; for ATATATGA: 0.0855; for AATGTACT: 0.0746.
The same measure for CTTCCGTA: 0.0736.
With AGACGAGA, the binding signal (normalized occupancy) stood at 0.0692.
On to ACGTCAGC, for which the binding signal (normalized occupancy) stood at 0.0819.
To AGCTAGTA belongs 0.0688; to AAGCGCCA, 0.0693.
Consider CGTGCCAG, for which the binding signal (normalized occupancy) is 0.0784.
To ATGATTTG belongs 0.0775; to ACATTAAT, 0.0775; to ACGAGCTA, 0.0699.
Consider AACGGTCG, for which the binding signal (normalized occupancy) is 0.0728.
For GATTATTA, the binding signal (normalized occupancy) turned out to be 0.0834.
For the sequence CGTGGAGA, the binding signal (normalized occupancy) was 0.084.
For AATCAGTG, the binding signal (normalized occupancy) was 0.0739.
Take CAGCAGGC: the binding signal (normalized occupancy) came out at 0.067.
To GACTTGCC belongs 0.0652; to CATAGTTC, 0.0742; to AGACACAA, 0.0705.
For the sequence AGTCGGCC, the binding signal (normalized occupancy) was found to be 0.0671.
With GCTGAGGA, the binding signal (normalized occupancy) was 0.0717.
As to GGCCAGTA, the binding signal (normalized occupancy) stood at 0.0714.
The same measure for GGCTTTAA: 0.0708; for ATCCTCAT: 0.0899; for AACTCGCA: 0.0712.
The same measure for ATGTCTCG: 0.0802.
The same measure for CACTGTAA: 0.0748; for CACCTCAG: 0.0704; for CCAGGTAA: 0.0729.
For CGCCCAGA, the binding signal (normalized occupancy) is 0.0713.
To CGAGAACC belongs 0.0813.
As to GATCAACA, the binding signal (normalized occupancy) came out at 0.078.
To AATTATGG belongs 0.0831; to CGAAGGAA, 0.0722; to AAGTTGAG, 0.0725.
The same measure for ACTGGAAT: 0.0784.
To ACTGCGCG belongs 0.0704; to CATGGTCA, 0.0991.
As to AGTCCGAG, the binding signal (normalized occupancy) was 0.0716.
In the case of CACAAACA, the binding signal (normalized occupancy) came to 0.0811.
TCGCACGA: the binding signal (normalized occupancy) is 0.0806.
The same measure for CTCGGGCA: 0.0702.
The same measure for TAACTGGA: 0.0697.
The same measure for GAATACGA: 0.0768.
For the sequence GCCAGTTA, the binding signal (normalized occupancy) amounted to 0.0705.
ACACCTTC: the binding signal (normalized occupancy) was determined as 0.0779.
To AAGGCAAC belongs 0.0734.
To AGAGATCA belongs 0.0773; to GCCCTGCC, 0.0693.
As for GGAACCTA, the binding signal (normalized occupancy) was 0.0727.
Turning to CTTAGAAC, the binding signal (normalized occupancy) was 0.0717.
To AGTGCGAC belongs 0.0717.
The same measure for ATGGGGTG: 0.0884; for CCGTACAG: 0.0698; for AGCGATTA: 0.0695.
For TCGTGAAA, the binding signal (normalized occupancy) was 0.0742.
On to AATTGCTG, for which the binding signal (normalized occupancy) was found to be 0.0737.
Consider CCGCGCAA, for which the binding signal (normalized occupancy) is 0.0729.
Turning to CCTGCGAC, the binding signal (normalized occupancy) is 0.076.
Turning to GAAGGGTC, the binding signal (normalized occupancy) amounted to 0.0705.
For GATCCGGA, the binding signal (normalized occupancy) came to 0.0733.
The same measure for GTTGGCCA: 0.0757; for AATACGGT: 0.0743; for AATTGACA: 0.0733.
The same measure for GACGCGGC: 0.0758.
The same measure for TACAACGA: 0.0759; for ACGCATGA: 0.102; for CCCCGTCG: 0.0768.
Take ACTTTTTG: the binding signal (normalized occupancy) was determined as 0.0733.
To CATTTGAG belongs 0.0913.
To AGGTTTAG belongs 0.0686; to AGGGCCTA, 0.0723.
Take CCTTCAAG: the binding signal (normalized occupancy) stood at 0.072.
With AATCGCGC, the binding signal (normalized occupancy) amounted to 0.071.
The same measure for AAATATCA: 0.0808; for AAGCCGCT: 0.0662; for CCCCGGTA: 0.0743.
CGGTATAC: the binding signal (normalized occupancy) is 0.0811.
Take CTTGCTAC: the binding signal (normalized occupancy) came to 0.0726.
The same measure for AGTGCACG: 0.0853; for CCACAGCC: 0.0702; for AGCGCTAT: 0.0678.
For ATCCGTCC, the binding signal (normalized occupancy) is 0.0736.
To CGCCAGTA belongs 0.0708; to CATGGCGG, 0.0909.
Take ACAGCAGC: the binding signal (normalized occupancy) was 0.0714.
To AGGGGCTG belongs 0.0775.
Regarding ACCCGTCC, the binding signal (normalized occupancy) stood at 0.0729.
To ACTTAACC belongs 0.074; to AGAACCGG, 0.0734.
Turning to GCCCTGCA, the binding signal (normalized occupancy) was determined as 0.0761.
As to CCACGGGC, the binding signal (normalized occupancy) stood at 0.076.
The same measure for TATCAGGA: 0.0735; for AACAACGA: 0.075.
As for ACGCTTTC, the binding signal (normalized occupancy) was determined as 0.0752.
To GAGCCTTA belongs 0.0709; to GCCGCCCA, 0.0745.
On to TTCGCAAA, for which the binding signal (normalized occupancy) is 0.0733.
As to CCCGTCTA, the binding signal (normalized occupancy) came to 0.0728.
To TCCGGGAA belongs 0.0701.
To CTGCTCCC belongs 0.0741.
With ACTTTAAA, the binding signal (normalized occupancy) came out at 0.0719.
AGTCGACT: the binding signal (normalized occupancy) was 0.079.
The same measure for CCGCACCC: 0.078.
Take CAACCCTC: the binding signal (normalized occupancy) is 0.0777.
To AGGCATCG belongs 0.0725.
In the case of AAGCACTC, the binding signal (normalized occupancy) turned out to be 0.0743.
In the case of AATCGAAT, the binding signal (normalized occupancy) is 0.0782.
For the sequence CTCGAGTA, the binding signal (normalized occupancy) came to 0.0758.
To AAACGCTC belongs 0.0724.
The same measure for ATCGACTG: 0.0693; for ATGGACAG: 0.0816; for TGTTAACA: 0.0864.
As for GTCCCCAC, the binding signal (normalized occupancy) was determined as 0.0823.
Take AAACCGAC: the binding signal (normalized occupancy) came to 0.0727.
Turning to AAGCAGAG, the binding signal (normalized occupancy) stood at 0.0743.
The same measure for AGCAAAGC: 0.0681; for AGACCCCC: 0.0781.
To AAAAGTCA belongs 0.0711.
With CTTGCCAC, the binding signal (normalized occupancy) came to 0.0767.
For the sequence ACCCGTGG, the binding signal (normalized occupancy) is 0.082.
The same measure for CGGCATAA: 0.0746.
To CAGTACTA belongs 0.0775; to GAGATGGA, 0.0798.
To CGGCCAGA belongs 0.0677.
